Reference: paper PMC12136788
Some of the results follow.

T1: UNK ZnF1-3 (human, UniProt Q9C0B0 31-174)
T1 sequence: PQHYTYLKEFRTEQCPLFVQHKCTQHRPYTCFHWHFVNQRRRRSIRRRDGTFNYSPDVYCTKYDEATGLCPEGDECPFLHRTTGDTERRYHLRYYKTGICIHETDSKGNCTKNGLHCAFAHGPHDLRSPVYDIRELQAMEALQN

B1: chr12:86292109:86292110:-_ENSMUSG00000042350_ENSMUST00000043169|mus_mus|FALSE|FALSE (ssRNA)
RNA: GGGAGUUCUACAGUCCGACGAUCACUUUCCACUCCUUUCACUUGUCUUCUAACUUGCACAUUUGAAAAAAAAAAAAAGAAAAGAAAAAGAAAAGGCCAAAAAGUCACCAGAAAGGAUCUGCCCUCCAAAUCUUCAUUGAGGUUCAACAGAGGAUUGAGCAUCA
B2: chr7:151048522:151048523:+_ENSG00000013374_ENST00000566856|hu_mus|hu_hu_hu_mus_True|58_78 (ssRNA)
RNA: GGGAGUUCUACAGUCCGACGAUCCUGUUUCUUAUUUAUUACGAUCUUGAUGUAAUUUUCUUGAAGUCCGAAAGUUUCAGCUAUUUUACACCUCAGGUCUCUACCAGUGACAUGCAAGCGGGUCUCCAACAAGCUUUUCUUAUCCAACAGAGGAUUGAGCAUCA
B3: chr1:58468927:58468928:-_ENSMUSG00000026034_ENSMUST00000148330|mus_mus|mus_mus_mus_hu_False|8_88 (ssRNA)
RNA: GGGAGUUCUACAGUCCGACGAUCAAUUACUGAAAAAGAUGUUCAUUUAUUUGGUUUUGUACUUAAUGAACCAAAUUACCCAAACAAAAUAAACAUGGCAAUAUAAAAAUGUUAAGAAUUUACAAAGAUUAAAAGCUUAACUUACAACAGAGGAUUGAGCAUCA
B4: chr7:44244176:44244177:+_ENSG00000106636_ENST00000223369|hu_mus|hu_hu_hu_mus_False|1_58 (ssRNA)
RNA: GGGAGUUCUACAGUCCGACGAUCACUGUCGCUCCGGACGUAGACAUGGCAAAGAUACUCUUGUUCUUUGACAGAAGCUCUAGUGCCUUUCCCCGAGCGUUCCACAAUCAGUUGACUUGUAAAGGUCAUGAAUUCCUGAACGCUCAACAGAGGAUUGAGCAUCA
B5: chr11:48615247:48615248:+_ENSMUSG00000020372_ENSMUST00000020640|perfect_dup|motif|central (ssRNA)
RNA: GGGAGUUCUACAGUCCGACGAUCUCCAUCCCAGGAGCCUGAGAGGGCAAACUGGCCAUCUGAGGAGAUAACCACAUCACGGACAAAGUGGGAGUGACCCCGCAGAGCACGCUGUGGAAUUCCAUAGUUGGUCUCAUCCCUGGUCAACAGAGGAUUGAGCAUCA
B6: chr3:150289932:150289933:+_ENSG00000144895_ENST00000460851|hu_hu|hu_hu_hu_mus_False|8_78 (ssRNA)
RNA: GGGAGUUCUACAGUCCGACGAUCCUUGUAGUUUUUAACAUCCCAUACUUCCAUUUGUCCCCUCAGAUUUCCAAAUCCAGCCAGCACUAAUAUAUGUCCAUGAGGGCUAUAGAAGGCUGCGUUGCGAGGACCAGUUCCAAAGUCCAACAGAGGAUUGAGCAUCA

target: T1, UNK ZnF1-3; assay: nsRBNS (natural sequence RNA bind-n-seq); RBNS binding buffer (assumed for nsRBNS): 25 mM Tris pH 7.5, 150 mM KCl, 3 mM MgCl2, 0.01% Triton X-100, 500 ug/ml BSA, 20 U/ml SUPERase-In, 4 C; UNK is unkempt and MSI1 is Musashi-1; names of the RNAs are library labels; protein concentration not given here; high values mean tight binding

Binder | binding signal
B1 | 2.83 enrichment R
B2 | 0.64 enrichment R
B3 | 0.792 enrichment R
B4 | 0.471 enrichment R
B5 | 1.29 enrichment R
B6 | 1.04 enrichment R
